# Experimental data published in PubChem BioAssay (Tox21).
# Several values for one entry are separate records, joined by “and”; a condition that tells them apart may be missing. Equal entries are not always repeated. Inconclusive results, whose numbers are uncertain, are shown with a selection of clear calls. For some of these results: A potency beside an inconclusive call is a rough fit, not a confirmed value. Activity calls are given as the source filed them. Unless noted, the call rests on the fitted dose curve; in most records, active means well fitted curve in the direction sought with a large enough effect in the repeat runs; inconclusive means weak or mixed curves; inactive means no such curve, though single readings can be large; an effect the other way counts as inactive or inconclusive.
# Columns and labels:
# [1] = qHTS assay to identify small molecule antagonists of the retinoid-related orphan receptor gamma (ROR-gamma) signaling pathway - cell viability counter screen (AID 1159520); further: nearly all actives have a fitted effect of over 50% in size
# Outline: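 Cytotoxicity was read from cellular ATP (CellTiter-Glo luminescence) after 16 hr at 37 C with 1 uM doxycycline induction. The inducer was added 2 hr after compound transfer to Tet-on ROR gamma CHO cells.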
# [2] = qHTS assay to identify small molecule agonists of the AP-1 signaling pathway (AID 1159526; calls by dose curve; on activation: on the % scale 0 is the no-effect control and ±100 the full control effect); details: ME-180 (cervical carcinoma) AP-1-bla reporter, beta-lactamase FRET ratio, 5 h; activation: at 76.8 µM (top of the series) unless noted
# [3] = biological target: Retinoic acid receptor RXR-alpha (Homo sapiens) (UniProt P19793); experiment: qHTS assay to identify small molecule agonists of the RXR signaling pathway (AID 1159527; calls by dose curve; further: nearly all actives have a fitted effect of over 35% in size; on activation: on the % scale 0 is the no-effect control and ±100 the full control effect); details: HEK293T RXRa-UAS-bla, beta-lactamase ratio, 16 h; activation: at 76.8 µM (top of the series) unless noted
# Outline: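 Beta-lactamase reporter assay, agonist format. Engineered HEK 293T line, charcoal-stripped FBS at 2%, overnight (16 hr) exposure, fluorescence at 460 and 530 nm after 405 nm excitation.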
# [4] = qHTS assay to identify small molecule agonists of the retinoic acid receptor (RAR) signaling pathway (AID 1159553); details: C3RL4 RARE luciferase reporter, agonist, 6 h; activation: at 73.3 µM (top of the series) unless noted
# Outline: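 RARE-luc C3RL4 cells; overnight attachment 37 C/5% CO2; compound (DMSO) 6 hr; luciferase reagent, 30 min RT; luminescence read-out.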
# [5] = qHTS assay to identify small molecule agonists of the RXR signaling pathway - cell viability counter screen (AID 1159529); further: nearly all actives have a fitted effect of over 50% in size
# Outline: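 Same-well viability check after the LiveBLAzer FRET read: CellTiter-Glo added, luminescence measured after 30 min at room temperature. Reporter HEK 293T cells had been treated with compounds for 16 hr following a 5 hr preincubation.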
# [6] = qHTS assay to identify small molecule antagonists of the retinoic acid receptor (RAR) signaling pathway (AID 1159552; further: nearly all actives have a fitted effect of over 50% in size)
# Outline: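 Readout: luciferase luminescence, 30 min post-reagent at RT. Setup: C3RL4 RARE reporter cells, compounds plus retinol 1 uM final, 6 hr incubation at 37 C and 5% CO2.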
# [7] = qHTS assay to identify small molecule antagonists of the estrogen related receptor (ERR) signaling pathway from Tox21 library - cell viability counter screen (AID 1224834); further: nearly all actives have a fitted effect of over 30% in size
# Outline: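 Multiplexed viability counter screen in ERR cells: 17.5 h compound exposure at 37 C, CellTiter-Fluor added, 30 min at 37 C/5% CO2, fluorescence read.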
# [8] = biological target: Luciferin 4-monooxygenase (Photinus pyralis) (UniProt P08659); experiment: qHTS assay to identify small molecule inhibitors of firefly luciferase (AID 1224835); further: nearly all actives have a fitted effect of over 25% in size
# Outline: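 Inhibition of purified Photinus luciferase is measured by luminescence. Substrate levels (D-luciferin, ATP) sit at their KM values. Each compound is tested in a concentration series.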
# [9] = qHTS assay to identify small molecule agonists of the constitutive androstane receptor (CAR) signaling pathway - cell viability counter screen (AID 1224836); further: nearly all actives have a fitted effect of over 45% in size
# Outline: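 Compound titrations (15 concentrations) went onto HepG2-CYP2B6-hCAR cells 4 h after seeding, alongside PK11195 at a final 0.75 uM; a 23 h, 37 C/5% CO2 incubation preceded CellTiter-Fluor viability measurement.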
# [10] = qHTS assay to identify small molecule antagonists of the constitutive androstane receptor (CAR) signaling pathway - cell viability counter screen (AID 1224837); further: nearly all actives have a fitted effect of over 45% in size
# Outline: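 Read-out: CellTiter-Fluor fluorescence after 23 hr at 37 C/5% CO2. Cells: HepG2 double-stable for hCAR and CYP2B6-2.2kb. Compounds tested at 15 concentrations in the presence of CITCO, final concentration 50 nM.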
# [11] = qHTS assay to identify small molecule antagonists of the retinoid acid receptor (RAR) signaling pathway - cell viability counter screen (AID 1159551); further: nearly all actives have a fitted effect of over 35% in size
# Outline: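 C3RL4 RARE-luciferase line; cpds + retinol 1 uM final, 6 h, 37 C/5% CO2; CellTiter-Glo ATP luminescence, 30 min RT.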
# [12] = qHTS assay to identify small molecule antagonists of the estrogen related receptor (ERR) signaling pathway - cell viability counter screen (AID 1224818)
# Outline: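 Fluorescence from CellTiter-Fluor, read 30 min after reagent addition at 37 C, measured viability of ERR cells exposed to compounds for 17.5 h. Cells had settled 6 h before dosing.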
# [13] = qHTS assay to identify small molecule antagonists of the estrogen related receptor (ERR) signaling pathway (AID 1224819; further: nearly all actives have a fitted effect of over 50% in size)
# Outline: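 Luminescence readout (One-Glo, 30 min, RT) of ERR cell line after 18 h compound exposure at 37 C; cells seeded 2,000/well, pre-incubated 6 h, compounds pinned from DMSO stocks.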
# [14] = system: estrogen-related receptor alpha (ERRalpha) with PGC-1alpha coactivator, human; experiment: qHTS assay to identify small molecule antagonists of the estrogen related receptor signaling pathway with the pleiotropic PPARgamma coactivator (PGC) (AID 1224821; calls by dose curve; further: nearly all actives have a fitted effect of over 50% in size)
# Outline: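 PGC/ERR reporter cells; 6 h pre-incubation 37 C/5% CO2; pin-tool compound in DMSO, 18 h 37 C; One-Glo added, 30 min RT; luminescence read. qHTS antagonist mode.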
# [15] = qHTS assay to identify small molecule antagonists of the estrogen related receptor signaling pathway with the pleiotropic PPARgamma coactivator (PGC) cell viability counter screen (AID 1224822)
# Outline: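 Fluorescence read-out of CellTiter-Fluor after 30 min at 37 C; PGC/ERR cells, 2,000 per well, had been exposed to DMSO-dissolved compounds for 17.5 h following a 6 h pre-incubation.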
# Potency means the concentration at half of the fitted maximal effect; tags describe the fitted curve by direction and shape or compound fluorescence and quenching.
# Chain of UniProt P19793 (P19793 whole entry, looked up): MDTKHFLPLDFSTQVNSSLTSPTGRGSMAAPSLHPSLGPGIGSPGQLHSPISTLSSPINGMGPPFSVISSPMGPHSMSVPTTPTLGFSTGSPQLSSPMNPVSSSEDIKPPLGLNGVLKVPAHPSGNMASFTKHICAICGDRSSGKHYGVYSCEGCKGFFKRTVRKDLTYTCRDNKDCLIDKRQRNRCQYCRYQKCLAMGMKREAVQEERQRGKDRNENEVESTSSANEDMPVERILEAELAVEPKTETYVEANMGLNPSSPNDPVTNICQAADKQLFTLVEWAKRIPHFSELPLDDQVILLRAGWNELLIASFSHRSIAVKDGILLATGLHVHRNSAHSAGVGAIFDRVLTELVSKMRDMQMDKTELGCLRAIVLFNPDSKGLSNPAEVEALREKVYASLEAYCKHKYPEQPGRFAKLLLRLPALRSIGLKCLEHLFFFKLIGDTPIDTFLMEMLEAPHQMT
# Chain of UniProt P08659 (P08659 whole entry, looked up): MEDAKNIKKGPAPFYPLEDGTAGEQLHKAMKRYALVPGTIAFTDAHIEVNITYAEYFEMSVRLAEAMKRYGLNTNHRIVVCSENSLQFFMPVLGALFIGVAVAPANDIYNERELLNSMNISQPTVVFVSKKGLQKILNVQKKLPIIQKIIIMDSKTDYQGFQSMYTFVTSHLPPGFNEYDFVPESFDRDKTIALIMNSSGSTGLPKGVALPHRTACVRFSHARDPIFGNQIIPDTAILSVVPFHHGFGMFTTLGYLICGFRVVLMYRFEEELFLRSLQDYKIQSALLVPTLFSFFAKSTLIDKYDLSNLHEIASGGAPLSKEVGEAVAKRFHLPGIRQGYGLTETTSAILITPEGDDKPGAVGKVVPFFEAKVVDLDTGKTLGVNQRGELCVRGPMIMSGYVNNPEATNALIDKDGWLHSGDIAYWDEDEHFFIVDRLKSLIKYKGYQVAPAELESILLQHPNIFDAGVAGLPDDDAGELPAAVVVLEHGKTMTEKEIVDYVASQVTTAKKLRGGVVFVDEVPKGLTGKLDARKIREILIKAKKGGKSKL
smiles,measurement,setting,value
Oc1ccc2ccc3cccc4ccc1c2c34,Potency,[1],"inconclusive: 68.6 µM [cytotoxic, partial curve, poor fit]"
same,Potency,[2],"inconclusive: 49 µM [falling, partial curve, poor fit]"
same,Potency,[3],"inconclusive: 24.5 µM [fluorescent, partial curve, poor fit]"
same,Potency,[4],"inconclusive: 68.6 µM [activator, partial curve, poor fit]"
CCOc1cc(C(C)(C)C)ccc1C1COC(c2c(F)cccc2F)=N1 (stereo not given),Potency,[1],"inconclusive: 37.1 µM [cytotoxic, partial curve, poor fit]"
same,Potency,[2],"inconclusive: 2.65 µM [activator, full curve, poor fit]"
same,Potency,[3],"inconclusive: 29.7 µM [rising, partial curve, poor fit]"
same,Potency,[5],active: 14.9 µM
same,Potency,[6],"inconclusive: 37.1 µM [inhibitor, single point]"
C(=NC1CCCCC1)=NC1CCCCC1,Potency,[1],"inconclusive: 27.5 µM [cytotoxic, partial curve] and inconclusive: 27.3 µM [cytotoxic, partial curve]"
same,activation,[2],inconclusive: -6.51%
same,Potency,[3],"inconclusive: 4.39 µM [inhibitor, partial curve]"
same,activation,[3],inconclusive: -15.7%
same,Potency,[5],"inconclusive: 49 µM [rising, partial curve, poor fit]"
same,Potency,[4],"inconclusive: 8.69 µM [activator, full curve, poor fit]"
same,Potency,[7],"inconclusive: 38.8 µM [cytotoxic, partial curve, poor fit] and inconclusive: 15.4 µM [cytotoxic, full curve]"
same,Potency,[8],"inconclusive: 14.2 µM [inhibitor, partial curve, poor fit]"
same,Potency,[9],"inconclusive: 12.3 µM [cytotoxic, full curve] and inconclusive: 15.4 µM [cytotoxic, full curve]"
same,Potency,[10],"inconclusive: 8.69 µM [cytotoxic, full curve] and inconclusive: 13.7 µM [cytotoxic, full curve]"
C=CC(=O)OCC(CC)(COC(=O)C=C)COC(=O)C=C,Potency,[1],"inconclusive: 22.3 µM and inconclusive: 1.93 µM [cytotoxic, full curve, poor fit]"
same,Potency,[2],"inconclusive: 1.42 µM [cytotoxic, full curve] and inconclusive: 3.89 µM [cytotoxic, full curve]"
same,Potency,[3],inconclusive: 7.11 µM and inconclusive: 11 µM [inhibitor]
same,Potency,[5],active: 15.9 µM and active: 21.9 µM
same,Potency,[11],"inconclusive: 62.8 µM [cytotoxic, single point]"
same,Potency,[4],"active: 2.23 µM and inconclusive: 4.33 µM [activator, partial curve]"
CC(C)(O)c1cnn2c(-c3ccc(F)c(-c4c(F)cccc4C#N)c3)cnc2n1,Potency,[1],"inconclusive: 17.2 µM [cytotoxic, partial curve, poor fit]"
same,Potency,[2],"inconclusive: 54.9 µM [fluorescent, single point]"
same,Potency,[3],"inconclusive: 54.9 µM [fluorescent, partial curve]"
same,Potency,[5],"inconclusive: 54.9 µM [cytotoxic, single point]"
same,Potency,[6],"inconclusive: 34.4 µM [inhibitor, partial curve]"
same,Potency,[7],"inconclusive: 24.3 µM [cytotoxic, partial curve]"
Fc1ccc(C(OCCN2CCN(CCCc3ccccc3)CC2)c2ccc(F)cc2)cc1,Potency,[1],active: 29.8 µM
same,Potency,[2],"inconclusive: 23.9 µM [falling, partial curve]"
same,Potency,[3],"inconclusive: 26.8 µM [cytotoxic, single point]"
same,Potency,[5],active: 16.9 µM
same,Potency,[11],"inconclusive: 33.5 µM [cytotoxic, single point]"
same,Potency,[6],"inconclusive: 26.6 µM [inhibitor, partial curve]"
same,Potency,[4],inconclusive: 26.6 µM [inhibitor]
same,Potency,[12],inconclusive: 22 µM [cytotoxic]
same,Potency,[13],active: 9.08 µM
same,Potency,[14],active: 12.8 µM
same,Potency,[15],active: 22.8 µM
same,Potency,[7],active: 26.6 µM
Cc1ccc2c(c1N)C(=O)c1ccccc1C2=O,Potency,[1],"inconclusive: 30.3 µM [cytotoxic, partial curve, poor fit]"
same,Potency,[2],inactive
same,Potency,[11],"inconclusive: 67.8 µM [cytotoxic, partial curve, poor fit]"
same,Potency,[4],active: 1.7 µM and active: 1.93 µM
same,Potency,[7],"inconclusive: 38.6 µM [cytotoxic, partial curve]"
same,Potency,[9],"inconclusive: 48 µM [cytotoxic, partial curve] and inconclusive: 48.6 µM [cytotoxic, partial curve, poor fit]"
same,Potency,[10],"inconclusive: 42.8 µM [cytotoxic, partial curve] and inconclusive: 30.6 µM [cytotoxic, partial curve, poor fit]"
CN(C)c1ccc(N)cc1,Potency,[1],"inconclusive: 42.2 µM [cytotoxic, partial curve, poor fit]"
same,Potency,[2],"inconclusive: 38 µM [falling, partial curve, poor fit]"
same,Potency,[3],"inconclusive: 38 µM [inhibitor, partial curve]"
same,Potency,[11],"inconclusive: 42.2 µM [cytotoxic, partial curve]"
same,Potency,[4],active: 0.596 µM
